# Test results taken from the supplement of paper PMC8728848.
# The list shows a part of the results.
# B1: NanI (Corynebacterium diphtheriae), C6JSW7 (protein)
# chain: MTNTLESNPMTTTTGALTITFATTCDGPLAHIPHHLDLNIIHGRIQGTTAHRRIDAEDPDGLDDGLPHHLCLSVDTTGTHLFIDGYEAFSTTQTEWFDTSELTLNPHGDLTIIDHQILNHAPTPRQARNLAPAAEPLVWFAGSHLSTRDTQRISHLTHGSLRLLMKTRGTGQGGVAFQAHTINGDLTLEIIDGTLIFSVRCHDEDYVRITAPGRWDDGQIYDVVIVCGRGATDIYVDGQQLIHSPGAAFFNDLSGELSVHIGTAASGVRLFGEVQSGMIYPHVFNHHQVQRLATVEPIATQALFDCLLDGAQSYRIPSLITTDSGVIIAGADKRVSIANDAPNDIDFVLRRSVDGGRTWQPPRTILQLPDTACVTDSVLLQDHTTGRIFAFLDQFPAGIGQPNAAFGTGFDADGNRIGHFADGSTCTMPREVDQLEASFFSDPHTAPPGIVFQHPSCHLWMLTSDDDGLTWSTPRDLTPDVKEEWMRFCGTSPGNGIQLQRDTHAGRLLIPMYYTKGDQFFAAALYSDDHGDTWHRGESPDLEMYESTLVEASDGSVLLWARNQHPSGAVAHARSTDGGHSWSQVTFNPNVPEIFSQPNALRVTNPDGIIFANASQLLPFRGRGVLRMSTNDGASWQHNRVFNPRHYVYQCMTQLPDGSIGLLWEREMQGLFFSIIPMTWIMQGYAL
# Assays:
# Assay in all cases: glycan array binding signal (z-score within array); higher = stronger binding
# Conditions in all cases: glycan notation: IUPAC condensed, linker removed
# GlcNAc(b1-3)Gal(b1-4)Glc = target: GlcNAc(b1-3)Gal(b1-4)Glc
# Outline: (§1)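 Glycan array data were curated from 3228 arrays in the Consortium for Functional Glycomics database and kept only where the protein sequence was available. Glycan names were converted to IUPAC-condensed notation, and columns mapping to the same glycan were averaged. The binding signal is a within-array Z-score, averaged across arrays of the same protein sequence at different concentrations or buffers and across linkers. Negative Z-scores can be read as non-binding.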
# [1] = target: GlcNAc(b1-3)Gal(b1-4)GlcNAc
# Outline: as §1
# [2] = target: GlcNAc(b1-3)Gal(b1-4)GlcNAc(b1-3)Gal(b1-4)GlcNAc
# Outline: as §1
# GlcNAc(b1-3)GalNAc = target: GlcNAc(b1-3)GalNAc
# Outline: as §1
# GlcNAc(b1-3)Man = target: GlcNAc(b1-3)Man
# Outline: as §1
# [3] = target: GlcNAc(b1-3)[GlcNAc(b1-4)][GlcNAc(b1-6)]GlcNAc
# Outline: as §1
# [4] = target: GlcNAc(b1-3)[GlcNAc(b1-6)]Gal(b1-4)GlcNAc
# Outline: as §1
# [5] = target: GlcNAc(b1-3)[GlcNAc(b1-6)]GalNAc
# Outline: as §1
# [6] = target: GlcNAc(b1-4)Gal(b1-4)GlcNAc
# Outline: as §1
# GlcNAc(b1-4)GlcNAc = target: GlcNAc(b1-4)GlcNAc
# Outline: as §1
# [7] = target: GlcNAc(b1-4)GlcNAc(b1-4)GlcNAc
# Outline: as §1
# [8] = target: GlcNAc(b1-4)GlcNAc(b1-4)GlcNAc(b1-4)GlcNAc(b1-4)GlcNAc
# Outline: as §1
# [9] = target: GlcNAc(b1-4)GlcNAc(b1-4)GlcNAc(b1-4)GlcNAc(b1-4)GlcNAc(b1-4)GlcNAc
# Outline: as §1
# [10] = target: GlcNAc(b1-4)[GlcNAc(b1-6)]GalNAc
# Outline: as §1
# [11] = target: GlcNAc(b1-6)Gal(b1-4)GlcNAc
# Outline: as §1
# GlcNAc(b1-6)GalNAc = target: GlcNAc(b1-6)GalNAc
# Outline: as §1
# GlcNAc3Prop(b1-4)GlcNAc = target: GlcNAc3Prop(b1-4)GlcNAc
# Outline: as §1
# [12] = target: GlcNAc6S(b1-3)Gal(b1-4)GlcNAc
# Outline: as §1
# Kdn(a2-3)Gal(b1-3)GalNAc = target: Kdn(a2-3)Gal(b1-3)GalNAc
# Outline: as §1
# Kdn(a2-3)Gal(b1-3)GlcNAc = target: Kdn(a2-3)Gal(b1-3)GlcNAc
# Outline: as §1
# Kdn(a2-3)Gal(b1-4)Glc = target: Kdn(a2-3)Gal(b1-4)Glc
# Outline: as §1
# Kdn(a2-3)Gal(b1-4)GlcNAc = target: Kdn(a2-3)Gal(b1-4)GlcNAc
# Outline: as §1
# [13] = target: Kdn(a2-3)Gal(b1-4)[Fuc(a1-3)]GlcNAc
# Outline: as §1
# Kdn(a2-6)Gal(b1-4)GlcNAc = target: Kdn(a2-6)Gal(b1-4)GlcNAc
# Outline: as §1
# [14] = target: Man(a1-2)Man(a1-2)Man(a1-3)Man
# Outline: as §1
# [15] = target: Man(a1-2)Man(a1-2)Man(a1-6)[Man(a1-3)]Man
# Outline: as §1
# Man(a1-2)Man(a1-3)Man = target: Man(a1-2)Man(a1-3)Man
# Outline: as §1
# [16] = target: Man(a1-2)Man(a1-3)[Man(a1-2)Man(a1-6)]Man
# Outline: as §1
# [17] = target: Man(a1-2)Man(a1-3)[Man(a1-2)Man(a1-6)]Man(a1-6)[Man(a1-2)Man(a1-2)Man(a1-3)]Man
# Outline: as §1
# [18] = target: Man(a1-2)Man(a1-3)[Man(a1-2)Man(a1-6)]Man(a1-6)[Man(a1-2)Man(a1-2)Man(a1-3)]Man(b1-4)GlcNAc(b1-4)GlcNAc
# Outline: as §1
# [19] = target: Man(a1-2)Man(a1-3)[Man(a1-6)]Man(a1-6)[Man(a1-2)Man(a1-3)]Man(b1-4)GlcNAc(b1-4)GlcNAc
# Outline: as §1
# [20] = target: Man(a1-2)Man(a1-6)[Man(a1-3)]Man(a1-6)[Man(a1-2)Man(a1-2)Man(a1-3)]Man
# Outline: as §1
# [21] = target: Man(a1-2)Man(a1-6)[Man(a1-3)]Man(a1-6)[Man(a1-2)Man(a1-2)Man(a1-3)]Man(b1-4)GlcNAc(b1-4)GlcNAc
# Outline: as §1
# Man(a1-3)[Man(a1-6)]Man = target: Man(a1-3)[Man(a1-6)]Man
# Outline: as §1
# [22] = target: Man(a1-3)[Man(a1-6)]Man(a1-6)[Man(a1-2)Man(a1-3)]Man(b1-4)GlcNAc(b1-4)GlcNAc
# Outline: as §1
# [23] = target: Man(a1-3)[Man(a1-6)]Man(a1-6)[Man(a1-3)]Man
# Outline: as §1
# [24] = target: Man(a1-3)[Man(a1-6)]Man(a1-6)[Man(a1-3)]Man(b1-4)GlcNAc(b1-4)GlcNAc
# Outline: as §1
# [25] = target: Man(a1-3)[Man(a1-6)]Man(b1-4)GlcNAc(b1-4)GlcNAc
# Outline: as §1
# Man(a1-6)Man = target: Man(a1-6)Man
# Outline: as §1
# Man(b1-4)GlcNAc = target: Man(b1-4)GlcNAc
# Outline: as §1
# Neu5Ac(a2-3)Gal = target: Neu5Ac(a2-3)Gal
# Outline: as §1
# [26] = target: Neu5Ac(a2-3)Gal(b1-3)GalNAc
# Outline: as §1
# [27] = target: Neu5Ac(a2-3)Gal(b1-3)GalNAc(b1-3)Gal(a1-4)Gal(b1-4)Glc
# Outline: as §1
# [28] = target: Neu5Ac(a2-3)Gal(b1-3)GalNAc(b1-4)[Neu5Ac(a2-3)]Gal(b1-4)Glc
# Outline: as §1
# [29] = target: Neu5Ac(a2-3)Gal(b1-3)GalNAc(b1-4)[Neu5Ac(a2-8)Neu5Ac(a2-3)]Gal(b1-4)Glc
# Outline: as §1
# [30] = target: Neu5Ac(a2-3)Gal(b1-3)GalNAc6S
# Outline: as §1
# [31] = target: Neu5Ac(a2-3)Gal(b1-3)GlcNAc
# Outline: as §1
# [32] = target: Neu5Ac(a2-3)Gal(b1-3)GlcNAc(b1-3)Gal(b1-3)GlcNAc
# Outline: as §1
# [33] = target: Neu5Ac(a2-3)Gal(b1-3)GlcNAc(b1-3)Gal(b1-4)GlcNAc
# Outline: as §1
# [34] = target: Neu5Ac(a2-3)Gal(b1-3)GlcNAc(b1-3)GalNAc
# Outline: as §1
# [35] = target: Neu5Ac(a2-3)Gal(b1-3)GlcNAc6S
# Outline: as §1
# [36] = target: Neu5Ac(a2-3)Gal(b1-3)[Fuc(a1-4)]GlcNAc
# Outline: as §1
# [37] = target: Neu5Ac(a2-3)Gal(b1-3)[Fuc(a1-4)]GlcNAc(b1-3)Gal(b1-3)[Fuc(a1-4)]GlcNAc
# Outline: as §1
# [38] = target: Neu5Ac(a2-3)Gal(b1-3)[Fuc(a1-4)]GlcNAc(b1-3)Gal(b1-4)[Fuc(a1-3)]GlcNAc
# Outline: as §1
# [39] = target: Neu5Ac(a2-3)Gal(b1-3)[Neu5Ac(a2-3)Gal(b1-4)]GlcNAc
# Outline: as §1
# [40] = target: Neu5Ac(a2-3)Gal(b1-3)[Neu5Ac(a2-6)]GalNAc
# Outline: as §1
# Neu5Ac(a2-3)Gal(b1-4)Glc = target: Neu5Ac(a2-3)Gal(b1-4)Glc
# Outline: as §1
# [41] = target: Neu5Ac(a2-3)Gal(b1-4)GlcNAc
# Outline: as §1
# [42] = target: Neu5Ac(a2-3)Gal(b1-4)GlcNAc(b1-2)Man(a1-3)[GlcNAc(b1-2)Man(b1-4)GlcNAc(b1-2)Man(a1-6)]Man(b1-4)GlcNAc(b1-4)GlcNAc
# Outline: as §1
# [43] = target: Neu5Ac(a2-3)Gal(b1-4)GlcNAc(b1-2)Man(a1-3)[Neu5Ac(a2-6)Gal(b1-4)GlcNAc(b1-2)Man(a1-6)]Man(b1-4)GlcNAc(b1-4)GlcNAc
# Outline: as §1
binder,measurement,setting,value
B1,glycan array binding signal (z-score),GlcNAc(b1-3)Gal(b1-4)Glc,0.156
same,glycan array binding signal (z-score),[1],-0.35
same,glycan array binding signal (z-score),[2],-0.274
same,glycan array binding signal (z-score),GlcNAc(b1-3)GalNAc,-0.645
same,glycan array binding signal (z-score),GlcNAc(b1-3)Man,-0.474
same,glycan array binding signal (z-score),[3],-0.25
same,glycan array binding signal (z-score),[4],-0.88
same,glycan array binding signal (z-score),[5],-0.477
same,glycan array binding signal (z-score),[6],0.129
same,glycan array binding signal (z-score),GlcNAc(b1-4)GlcNAc,-0.681
same,glycan array binding signal (z-score),[7],-0.532
same,glycan array binding signal (z-score),[8],-1.05
same,glycan array binding signal (z-score),[9],-0.209
same,glycan array binding signal (z-score),[10],0.745
same,glycan array binding signal (z-score),[11],-0.307
same,glycan array binding signal (z-score),GlcNAc(b1-6)GalNAc,0.642
same,glycan array binding signal (z-score),GlcNAc3Prop(b1-4)GlcNAc,-1.09
same,glycan array binding signal (z-score),[12],0.261
same,glycan array binding signal (z-score),Kdn(a2-3)Gal(b1-3)GalNAc,0.118
same,glycan array binding signal (z-score),Kdn(a2-3)Gal(b1-3)GlcNAc,0.075
same,glycan array binding signal (z-score),Kdn(a2-3)Gal(b1-4)Glc,0.245
same,glycan array binding signal (z-score),Kdn(a2-3)Gal(b1-4)GlcNAc,-0.702
same,glycan array binding signal (z-score),[13],-0.642
same,glycan array binding signal (z-score),Kdn(a2-6)Gal(b1-4)GlcNAc,0.008
same,glycan array binding signal (z-score),[14],-0.488
same,glycan array binding signal (z-score),[15],-0.448
same,glycan array binding signal (z-score),Man(a1-2)Man(a1-3)Man,-0.381
same,glycan array binding signal (z-score),[16],1.3
same,glycan array binding signal (z-score),[17],0.157
same,glycan array binding signal (z-score),[18],-0.074
same,glycan array binding signal (z-score),[19],0.84
same,glycan array binding signal (z-score),[20],-0.202
same,glycan array binding signal (z-score),[21],1.28
same,glycan array binding signal (z-score),Man(a1-3)[Man(a1-6)]Man,-0.452
same,glycan array binding signal (z-score),[22],0.959
same,glycan array binding signal (z-score),[23],-0.783
same,glycan array binding signal (z-score),[24],-0.413
same,glycan array binding signal (z-score),[25],-0.676
same,glycan array binding signal (z-score),Man(a1-6)Man,-0.967
same,glycan array binding signal (z-score),Man(b1-4)GlcNAc,-0.504
same,glycan array binding signal (z-score),Neu5Ac(a2-3)Gal,-0.471
same,glycan array binding signal (z-score),[26],0.181
same,glycan array binding signal (z-score),[27],-0.203
same,glycan array binding signal (z-score),[28],-0.56
same,glycan array binding signal (z-score),[29],0.306
same,glycan array binding signal (z-score),[30],-0.092
same,glycan array binding signal (z-score),[31],-0.073
same,glycan array binding signal (z-score),[32],-0.243
same,glycan array binding signal (z-score),[33],-1.14
same,glycan array binding signal (z-score),[34],-0.319
same,glycan array binding signal (z-score),[35],0.051
same,glycan array binding signal (z-score),[36],0.093
same,glycan array binding signal (z-score),[37],-0.787
same,glycan array binding signal (z-score),[38],-0.18
same,glycan array binding signal (z-score),[39],-0.276
same,glycan array binding signal (z-score),[40],0.006
same,glycan array binding signal (z-score),Neu5Ac(a2-3)Gal(b1-4)Glc,-0.488
same,glycan array binding signal (z-score),[41],0.357
same,glycan array binding signal (z-score),[42],-0.23
same,glycan array binding signal (z-score),[43],0.111
